In paper PMC4336329 (PLoS ONE, 2015):
About 2,200 (0.71%) of roughly 310,000 compounds showed an effect of 50% or more. The effect is printed as a negative number. The list shows a part of the results.

These compounds were tested against human ether-à-go-go-related gene (hERG) potassium channel (human, UniProt Q12809) (assay: primary screen, population patch clamp on CHO cells stably expressing hERG).
human ether-à-go-go-related gene (hERG) potassium channel, sequence (Q12809 whole entry, looked up): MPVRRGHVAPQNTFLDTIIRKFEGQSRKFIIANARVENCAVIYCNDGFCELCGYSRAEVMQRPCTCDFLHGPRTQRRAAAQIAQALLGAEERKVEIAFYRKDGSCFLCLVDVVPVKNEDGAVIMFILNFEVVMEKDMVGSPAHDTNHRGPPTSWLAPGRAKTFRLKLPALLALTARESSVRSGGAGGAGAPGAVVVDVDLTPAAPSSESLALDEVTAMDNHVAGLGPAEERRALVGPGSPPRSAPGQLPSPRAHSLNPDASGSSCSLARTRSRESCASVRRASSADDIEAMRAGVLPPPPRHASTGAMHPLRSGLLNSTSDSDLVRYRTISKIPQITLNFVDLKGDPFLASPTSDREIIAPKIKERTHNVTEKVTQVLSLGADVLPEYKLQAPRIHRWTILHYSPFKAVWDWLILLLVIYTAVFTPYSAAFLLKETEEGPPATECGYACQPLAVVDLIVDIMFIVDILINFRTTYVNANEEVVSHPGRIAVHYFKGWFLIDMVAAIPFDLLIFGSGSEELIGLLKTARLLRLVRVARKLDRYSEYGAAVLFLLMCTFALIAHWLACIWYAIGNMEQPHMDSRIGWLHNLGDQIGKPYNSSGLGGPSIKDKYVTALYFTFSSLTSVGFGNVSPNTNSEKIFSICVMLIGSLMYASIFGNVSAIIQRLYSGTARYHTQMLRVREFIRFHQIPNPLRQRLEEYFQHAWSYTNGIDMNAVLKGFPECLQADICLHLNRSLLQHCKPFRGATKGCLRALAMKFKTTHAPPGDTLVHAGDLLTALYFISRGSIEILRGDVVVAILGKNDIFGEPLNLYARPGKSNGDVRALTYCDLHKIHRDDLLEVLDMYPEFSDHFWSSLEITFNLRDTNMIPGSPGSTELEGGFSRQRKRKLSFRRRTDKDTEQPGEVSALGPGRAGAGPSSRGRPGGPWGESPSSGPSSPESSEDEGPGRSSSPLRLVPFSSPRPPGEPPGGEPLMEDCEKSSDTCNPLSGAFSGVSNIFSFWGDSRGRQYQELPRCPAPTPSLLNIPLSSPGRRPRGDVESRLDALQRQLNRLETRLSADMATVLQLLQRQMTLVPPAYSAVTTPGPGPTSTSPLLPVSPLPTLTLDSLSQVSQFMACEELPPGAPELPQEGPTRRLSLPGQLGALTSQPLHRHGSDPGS

SMILES | hERG current change (%, negative = inhibition) at 1uM
Cn1c(=O)c2cc(S(=O)(=O)NC(C(=O)NCc3ccccn3)c3ccccc3)ccc2n(C)c1=O (stereo not shown) | 10.6%
NC(=O)CSc1nc2ccccc2c(=O)n1Cc1ccccc1 | 13.2%
CCCCCCCCC1CC(C(=O)Nc2ccccc2)C(=O)O1 (stereo not shown) | 10.3%
C=CCn1c(SCc2cc(=O)n3cc(C)ccc3n2)nnc1-c1ccc(F)cc1 | 4.2%
Cn1c(=O)c(C(=O)c2ccccc2)c(O)c2ccccc21 | 11.7%
CCS(=O)(=O)N1CCCC(C(=O)N2CCC3(CC2)OCCO3)C1 (stereo not shown) | 8.11%
CSC(=S)N(C)C1CCS(=O)(=O)C1 (stereo not shown) | 6.92%
CCOc1ccccc1N1CCN(C(=O)c2cc3c(C)cc(C)cc3[nH]2)CC1 | 6.92%
O=C(c1ccc([N+](=O)[O-])o1)N1CCN(c2nc3c(F)cc(F)cc3s2)CC1 | -35.3%
COc1cccc(C2(O)C(=O)Nc3ccccc32)c1 (stereo not shown) | 8.86%
O=C(Nc1ccccc1)c1ccc(-c2ccccc2)s1 | 24.6%
O=C(C1=C(O)C(=O)N(CCN2CCOCC2)C1c1ccco1)c1cc2ccccc2o1 (stereo not shown) | 7.58%
COc1ccc(C(C(=O)NCC2CCCO2)N(C(=O)CNC(=O)c2cccs2)c2ccccc2C)cc1OC (stereo not shown) | 15.6%
COc1ccc(S(=O)(=O)N(C)CC(=O)N2CCOCC2)cc1Cl | 14.1%
O=C(NNc1ccccn1)c1ccccc1CC[N+](=O)[O-] | 10.6%
CCc1ccc[n+](-c2[nH]c(=O)sc2/C=N/NC([S-])=Nc2ccccc2)c1 | 3.82%
Cc1cc(C(=O)Nc2cccnc2)cs1 | -9.74%
Cc1ccc(CS(=O)(=O)CCC(=O)N2CCC3(CC2)OCCO3)cc1 | 9.02%
CCCCOc1ccc(S(=O)(=O)Nc2ccc(NC(C)=O)cc2)cc1 | -12.7%
C=CCSc1nnc(-c2cnn(-c3ccccc3)c2-n2cccc2)n1C | 4.76%
CCCOc1ccc(C2C(C(=O)c3ccco3)=C(O)C(=O)N2CCN2CCOCC2)cc1OC (stereo not shown) | 18.7%
CCOC(=O)c1cc(C#N)c(SC(C)C(=O)NC2CCCCC2)nc1C (stereo not shown) | 10.5%

SMILES | hERG current change (%, negative = inhibition) at 1uM
CC(=O)Oc1cc(OC(C)=O)c2c(C)cc(=O)oc2c1 | 15%
Cc1ccc(CNc2cc(C(=O)O)ccc2C)s1 | 17.5%
O=C(CCC(=O)OCC(=O)c1ccc(Br)cc1)NC1CCCCC1 | 12.1%
CC(=O)Nc1sc2c(c1C(c1cccs1)N1CCOCC1)CCCC2 (stereo not shown) | 11.4%
COc1ccc(C(=O)NNC(=O)CSc2nnc(COc3ccc4ccccc4c3)n2C)cc1 | 9.41%
CCN(CC)S(=O)(=O)c1cccc(C(=O)Nc2ccc3c(c2)OCO3)c1 | -0.521%
CCCNc1ccc(S(=O)(=O)N(C(C)C)C(C)C)cn1 | 1.3%
O=C(NCc1ccccc1)c1cccc(F)c1F | 16.3%
COCCCn1c(=O)/c(=C\c2ccccc2OC(F)F)s/c1=C(/C#N)C(=O)NCCOC | 4.74%
COCCCn1c(SCC(=O)NC2CCCCC2)nnc1-c1ccncc1 | 19.2%
Cc1c(C(=O)O)cccc1N1C(=O)Nc2ccccc2N1O | 17.8%
COc1ccc(-c2nc3n(c2C)Cc2ccccc2-3)cc1 | 2.78%
Cc1nonc1CN(C)C(=O)CC1C(=O)NCCN1Cc1cccc(C(F)(F)F)c1 (stereo not shown) | 7.17%
O=C(O)/C(=C1\OC(=O)c2ccccc21)c1ccccc1 | 9.39%
O=C(CNc1ccc2ccccc2c1)NNC1=NCCC1 | 10.9%
CCOc1ccc(C2SCC(=O)Nc3c2c(C)nn3C2CCOC(C)(C)C2)cc1 (stereo not shown) | 12.3%
CC[N+]1=CN(c2ccccc2)C(C)=CC1(C)C.[I-] | 5.36%
O=C(Nc1ccc(N2C(=O)C3C4C=CC(C4)C3C2=O)cc1)Nc1nncs1 (stereo not shown) | -3.42%
COc1cc(C(=O)NCc2ccc(F)cc2)cc(Cl)c1OC | 12.9%
O=C(CN1C(=O)NC2(CCc3ccccc3C2)C1=O)Nc1ccc(Cl)cc1F (stereo not shown) | 8.99%
O=C(CO/N=C/c1ccccc1)Nc1c(F)c(F)c(F)c(F)c1F | 7.33%
COc1ccc(NC(=O)c2cccn(CC=C(C)C)c2=O)cc1 | 11.5%

SMILES | hERG current change (%, negative = inhibition) at 1uM
CCCCNC(=S)NNC(=O)c1csc(C)c1CC | 15.3%
CCOC(=O)N=S(N)(=O)c1ccc(Cl)cc1 (stereo not shown) | 6.9%
O=C(N/N=C/c1ccc(Br)cc1)c1ccc(Br)o1 | 20.1%
Cn1c(N)c(C(=O)COC(=O)c2cncc(Br)c2)c(=O)n(C)c1=O | -2.67%
CCOc1ccc(S(=O)(=O)N(CC(=O)NCc2cccnc2)c2ccc(F)cc2)cc1 | -67.2%
CCOC(=O)C1=C(C)NC2=C(C(=O)OC2)C1c1ccccc1 (stereo not shown) | 10.2%
COc1cccc(NC(=S)N2CCN(C(c3ccccc3)c3ccccc3)CC2)c1 | 8.06%
C=CCOc1c(Br)cc(CNc2ccc(NC(=O)CCC)cc2)cc1OCC | 6.23%
COc1ccc(CN2CCN(C(=O)c3cc(OC)c(OC)c(OC)c3)CC2)cc1OC | 6.64%
Cc1cc(=O)oc(C)c1C(=O)OCC(=O)c1ccc(Br)cc1 | 9.88%
Br.CCN(CC)S(=O)(=O)c1cccc(-c2nc3n(n2)Cc2ccccc2-3)c1 | -1.28%
CC(=O)c1cccc(NC(=O)CN2C(=O)c3cccnc3Oc3ccc(Cl)cc32)c1 | 7.05%
Cc1cccn2c(=O)c(C=O)c(N3CCN(c4ccc(F)cc4)CC3)nc12 | -2.07%
Cc1ccc(C(NC(=O)C2CCCCC2)c2c(O)ccc3ccccc23)cc1 (stereo not shown) | 1.33%
O=C1[C@H]2[C@H](C=CC[C@H]2C(=O)N2CCN(c3ccccc3)CC2)CCN1Cc1ccc(Cl)c(Cl)c1 | 9.67%
CC(C)(C)C(=O)Cn1ncc(NC2CC2)c(Br)c1=O | 10.2%
COc1ccc2[nH]c(=O)c(CN(c3ccccc3)S(=O)(=O)c3ccccc3)cc2c1 | 12.8%
CCCNc1oc(-c2cccc3ccccc23)nc1C#N | 6.32%
O=C1CC(NC(=O)c2ccc(Cl)cc2)C(=O)N1 (stereo not shown) | 11.1%
CS(=O)(=O)N(Cc1ccccc1)c1ccc(C(=O)NCCSCc2ccco2)cc1 | 6.91%
COC(=O)c1cc(C#N)c(Oc2ccc(OC)cc2)nc1C | -6.2%
CN(CC(=O)Nc1ccc(F)cc1)C(=O)COC(=O)CN1C(=O)NC2(CCCC2)C1=O | 12.4%

SMILES | hERG current change (%, negative = inhibition) at 1uM
CC(=O)N1c2ccc(S(=O)(=O)NCc3ccccc3Cl)cc2CC1C (stereo not shown) | 7.3%
O=C(CSc1nnc(-c2cccnc2)n1-c1ccccc1)Nc1ccccc1 | -44.9%
Cc1cccc(/C=C2/SC(=O)N(Cc3ccccc3)C2=O)n1 | 3.79%
O=C(O)CSc1nnc(Cc2ccccc2)n1Cc1ccccc1 | 7.14%
O=C(Nc1nnc(SCC(=O)N2CCOCC2)s1)c1ccccc1Cl | 9.94%
Cc1cc(NC(=O)CSc2ccc(Cl)cc2)no1 | -3.41%
CCN1CCN(CCCNc2ncnc3nc[nH]c23)CC1 | 0.117%
COC(=O)Nc1nc(-c2cc(Cl)ccc2Cl)cs1 | 10.5%
CCOC(=O)C1CCCN(C(=O)c2ccc3nc(-c4ccc(OC)c(OC)c4)c(-c4ccc(OC)c(OC)c4)nc3c2)C1 (stereo not shown) | 16.6%
ONC(=Nc1ccccc1Cl)c1ccccc1Cl | 14.4%
COc1ccc(N(C(C)C(=O)N/N=C/c2cccnc2)S(C)(=O)=O)cc1 (stereo not shown) | 7.87%
NC(=O)c1cc(S(=O)(=O)N2CCN(c3ccc([N+](=O)[O-])cc3)CC2)cs1 | -59.3%
O=C(Cn1nnc(-c2ccccc2NC(=O)c2ccccc2F)n1)NCc1ccco1 | 14.6%
CC[C@H](C)[C@@H]1NC(=O)c2cc([N+](=O)[O-])cc(F)c2NCCCC[C@@H](C(N)=O)NC(=O)[C@H](CC(N)=O)NC1=O | 7.43%
O=C1C2CC=CCC2C(=O)N1Cc1nnc(-c2ccccc2Br)o1 (stereo not shown) | 6.47%
N#CC1=C(N)Oc2n[nH]c(-c3cccnc3)c2C1c1cc(F)ccc1F (stereo not shown) | 8.92%
CC(C)c1ccc(NC2CCCN(C(=O)CCc3cn[nH]c3)C2)cc1 (stereo not shown) | 19.7%
Cc1cc(C)n2c(Nc3ccc4c(c3)OCCO4)c(-c3ccccc3)nc2n1 | 27.8%
O=C(COc1ccc(Cl)cc1)N(Cc1ccccc1)c1nc(-c2ccccc2)cs1 | 1.64%
COc1cccc(Oc2cc(NN3CCCCC3)c([N+](=O)[O-])cc2[N+](=O)[O-])c1OC | 9.98%
COc1cc(NC(=S)NCCCO)c(OC)cc1Cl | 15.2%
Cl.O=C(Nc1ccccc1)N1CCNCC1 | 13.9%
